Data taken from patent US9901592B2 (priority 2008, dated 2018).

Legend:
E. faecalis (ATCC 29212) = format: cell-based
S. aureus ATCC 25923 = format: cell-based
[1] = system: S. epidermidis (095-2777A); format: cell-based
[2] = system: S. aureus (ATCC 25923) in THP-1 macrophages; format: cell-based; details: 4-mg/liter concentration
S. aureus (ATCC 25923) = format: cell-based; details: broth, 4-mg/liter concentration
[3] = system: S. aureus ATCC 25923 phagocytosed by THP-1 macrophages; format: cell-based
S. mitis (112-1885A) = format: cell-based
THP-1 macrophages = assay: cellular accumulation (microbiological assay)
[4] = system: coagulase-negative staphylococci; details: CoNS (100)
[5] = system: β-haemolytic streptococci (BHS); details: BHS (100)
[6] = system: β-haemolytic streptococci (BHS); assay: organism not typed
S. pyogenes = format: cell-based; details: S. pyogenes (117-1612A)
[7] = system: β-haemolytic streptococci; assay: MBC determination (CLSI), MBC/MIC ratio; details: β-haemolytic streptococci (5)
Enterococcus spp. = assay: MBC determination (CLSI), MBC/MIC ratio; details: Enterococcus spp. (5)
[8] = system: Viridans group streptococci; assay: MBC determination (CLSI), MBC/MIC ratio; details: Viridans group streptococci (5)
S. aureus = assay: MBC determination (CLSI), MBC/MIC ratio; details: S. aureus (10)
[9] = system: Coagulase-neg. staphylococci; assay: MBC determination (CLSI), MBC/MIC ratio; details: Coagulase-neg. staphylococci (5)
S. pneumoniae = format: cell-based; details: S. pneumoniae (075-241B)

CC[C@H]1OC(=O)[C@H](C)[C@@H](O[C@H]2C[C@@](C)(OC)[C@@H](O)[C@H](C)O2)[C@H](C)[C@@H](O[C@@H]2O[C@H](C)C[C@H](N(C)C)[C@H]2O)[C@](C)(O)C[C@@H](C)CN(C)[C@H](C)[C@@H](O)[C@]1(C)O [AZI, azithromycin]
Antimicrobial activity (time kill curve) (E. faecalis (ATCC 29212)): Static | EC50 (S. aureus ATCC 25923): 3.55 ×MIC | Emax (S. aureus ATCC 25923): −1.23 log10 CFU | Antimicrobial activity (time kill curve) [1]: Static | reduction of CFU [2]: no consistent activity was detected | time to reach the antibacterial effect (S. aureus (ATCC 25923)): 5 h | Cs [3]: >100 ×MIC | EC50 [3]: 0.22 ×MIC | Antimicrobial activity (time kill curve) (S. mitis (112-1885A)): Cidal at 4X and 8X (slow killing) | Cc/Ce (24 h) (THP-1 macrophages; Verapamil (100 μM)): 216.37 ± 46.6^(a)

CC[C@H]1OC(=O)[C@@](C)(F)C(=O)[C@H](C)[C@@H](OC2OC(C)CC(N(C)C)C2O)[C@@](C)(OC)C[C@@H](C)C(=O)[C@H](C)[C@H]2N(CCCCn3cc(-c4cccc(N)c4)nn3)C(=O)O[C@]12C (stereo partly shown) [CEM-101, 11-N-4-(3-aminophenyl)-[1,2,3]triazol-1-yl]-butyl}-5-desosaminyl-3-oxo-2-fluoro-erythronolide A,-11,12-cyclic carbamate]
MIC50 [4]: 0.06 µg/mL (≈ 0.071 µM) | MIC90 [4]: > 16 µg/mL | Antimicrobial activity (time kill curve) (E. faecalis (ATCC 29212)): Static | MIC Range [5]: ≦0.008-0.12 μg/ml | time to reach the antibacterial effect (S. aureus (ATCC 25923)): 1 h | Cs [3]: 0.35 ×MIC | EC50 [3]: 0.11 ×MIC | Static dose [3]: ~0.02 mg/L | MIC50 [6]: 0.015 µg/mL (≈ 0.0178 µM) | MIC90 ([6]; BHS (100)): 0.03 µg/mL (≈ 0.0355 µM) | MIC90 ([6]; streptococci (BHS and VGS)): 0.03 to 0.06 µg/mL (≈ 0.0355 to 0.071 µM) | time for release of half of the cell-associated drug (efflux) (THP-1 macrophages; cells incubated with 10 mg/L for 1 h, then drug-free medium): approximately 10 min

CC[C@H]1OC(=O)[C@H](C)[C@@H](O[C@H]2C[C@@](C)(OC)[C@@H](O)[C@H](C)O2)[C@H](C)[C@@H](O[C@@H]2O[C@H](C)C[C@H](N(C)C)[C@H]2O)[C@](C)(OC)C[C@@H](C)C(=O)[C@H](C)[C@@H](O)[C@]1(C)O [CLR, clarithromycin]
Antimicrobial activity (time kill curve) (S. pyogenes): Cidal at 8X only (slow killing) | No. of strains with MBC/MIC value of: 1 [7]: 0 | No. of strains with MBC/MIC value of: 2 [7]: 0 | No. of strains with MBC/MIC value of: 4 [7]: 1 | No. of strains with MBC/MIC value of: 8 [7]: 1 | No. of strains with MBC/MIC value of: 16 [7]: 0 | No. of strains with MBC/MIC value of: ≧32 [7]: 2^b | No. of strains with MBC/MIC value of: 1 (Enterococcus spp.): 0 | No. of strains with MBC/MIC value of: 2 (Enterococcus spp.): 0 | No. of strains with MBC/MIC value of: 4 (Enterococcus spp.): 0 | No. of strains with MBC/MIC value of: 8 (Enterococcus spp.): 0 | No. of strains with MBC/MIC value of: 16 (Enterococcus spp.): 0 | No. of strains with MBC/MIC value of: ≧32 (Enterococcus spp.): 2^b | Antimicrobial activity (time kill curve) (E. faecalis (ATCC 29212)): Static | EC50 (S. aureus ATCC 25923): 1.59 ×MIC | Emax (S. aureus ATCC 25923): −1.41 log10 CFU | No. of strains with MBC/MIC value of: 1 [8]: 0 | No. of strains with MBC/MIC value of: 2 [8]: 0 | No. of strains with MBC/MIC value of: 4 [8]: 1 | No. of strains with MBC/MIC value of: 8 [8]: 0 | No. of strains with MBC/MIC value of: 16 [8]: 0 | No. of strains with MBC/MIC value of: ≧32 [8]: 3^b | Antimicrobial activity (time kill curve) [1]: Static | No. of strains with MBC/MIC value of: 1 (S. aureus): 0 | No. of strains with MBC/MIC value of: 2 (S. aureus): 0 | No. of strains with MBC/MIC value of: 4 (S. aureus): 0 | No. of strains with MBC/MIC value of: 8 (S. aureus): 0 | No. of strains with MBC/MIC value of: 16 (S. aureus): 0 | No. of strains with MBC/MIC value of: ≧32 (S. aureus): 6^b | No. of strains with MBC/MIC value of: 1 [9]: 0 | No. of strains with MBC/MIC value of: 2 [9]: 0 | No. of strains with MBC/MIC value of: 4 [9]: 0 | No. of strains with MBC/MIC value of: 8 [9]: 0 | No. of strains with MBC/MIC value of: 16 [9]: 0 | No. of strains with MBC/MIC value of: ≧32 [9]: 4^b | Cs [3]: 1.68 ×MIC | Cs, static concentration at 24 h [3]: ~0.86 mg/L | EC50 [3]: 0.093 ×MIC | Antimicrobial activity (time kill curve) (S. mitis (112-1885A)): Cidal at 8X only (slow killing)

CC[C@H]1OC(=O)[C@H](C)C(=O)[C@H](C)[C@@H](O[C@@H]2O[C@H](C)C[C@H](N(C)C)[C@H]2O)[C@](C)(OC)C[C@@H](C)C(=O)[C@H](C)[C@H]2N(CCCCn3cnc(-c4cccnc4)c3)C(=O)O[C@]12C [TEL, telithromycin]
Antimicrobial activity (time kill curve) (S. pyogenes): Cidal at 8X only (slow killing) | MIC50 [4]: 0.12 µg/mL (≈ 0.148 µM) | No. of strains with MBC/MIC value of: 1 [7]: 0 | No. of strains with MBC/MIC value of: 2 [7]: 1 | No. of strains with MBC/MIC value of: 4 [7]: 1 | No. of strains with MBC/MIC value of: 8 [7]: 1 | No. of strains with MBC/MIC value of: 16 [7]: 0 | No. of strains with MBC/MIC value of: ≧32 [7]: 2 | No. of strains with MBC/MIC value of: 1 (Enterococcus spp.): 0 | No. of strains with MBC/MIC value of: 2 (Enterococcus spp.): 0 | No. of strains with MBC/MIC value of: 4 (Enterococcus spp.): 0 | No. of strains with MBC/MIC value of: 8 (Enterococcus spp.): 0 | No. of strains with MBC/MIC value of: 16 (Enterococcus spp.): 0 | No. of strains with MBC/MIC value of: ≧32 (Enterococcus spp.): 5 | Antimicrobial activity (time kill curve) (E. faecalis (ATCC 29212)): Static | Antimicrobial activity (time kill curve) (S. pneumoniae): Static | EC50 (S. aureus ATCC 25923): 0.46 ×MIC | Emax (S. aureus ATCC 25923): −1.00 log10 CFU | No. of strains with MBC/MIC value of: 1 [8]: 2 | No. of strains with MBC/MIC value of: 2 [8]: 1 | No. of strains with MBC/MIC value of: 4 [8]: 1 | No. of strains with MBC/MIC value of: 8 [8]: 0 | No. of strains with MBC/MIC value of: 16 [8]: 0 | No. of strains with MBC/MIC value of: ≧32 [8]: 1 | Antimicrobial activity (time kill curve) [1]: Static | MIC Range [5]: ≦0.008-2 μg/ml | No. of strains with MBC/MIC value of: 1 (S. aureus): 0 | No. of strains with MBC/MIC value of: 2 (S. aureus): 0 | No. of strains with MBC/MIC value of: 4 (S. aureus): 0 | No. of strains with MBC/MIC value of: 8 (S. aureus): 0 | No. of strains with MBC/MIC value of: 16 (S. aureus): 0 | No. of strains with MBC/MIC value of: ≧32 (S. aureus): 10 | No. of strains with MBC/MIC value of: 1 [9]: 0 | No. of strains with MBC/MIC value of: 2 [9]: 0 | No. of strains with MBC/MIC value of: 4 [9]: 0 | No. of strains with MBC/MIC value of: 8 [9]: 0 | No. of strains with MBC/MIC value of: 16 [9]: 2 | No. of strains with MBC/MIC value of: ≧32 [9]: 3 | Cs [3]: 1.04 ×MIC | EC50 [3]: 0.097 ×MIC | MIC50 [6]: 0.03 µg/mL (≈ 0.0369 µM) | MIC90 ([6]; BHS (100)): 0.12 µg/mL (≈ 0.148 µM)

Values after ≈ are worked out from the molar mass of the structure shown. Marks after values point to notes of the source that are not given here.
